# About 64,000 (15%) of roughly 420,000 compounds were called active. Inconclusive means that the source gave no clear call. Such entries were picked first, then a sample of the others. Calls come from the whole dose curve; as a rule, active = well fitted inhibition curve with a large enough effect; inconclusive = small, poorly fitted or top-dose-only effect; inactive = flat fitted curve, though single readings scatter. No potency is given beside an inconclusive call; the fits are too rough.
# Assay: qHTS for Inhibitors of human tyrosyl-DNA phosphodiesterase 1 (TDP1): qHTS in cells in absence of CPT; note: nearly all actives have a fitted effect of over 55% in size
# Conditions: DT40 Tdp1-/- hTDP1 cells, no CPT, ATP luminescence, 48 h; activity change, negative = growth inhibition: at 46.2 µM (top of the series) unless noted
# Procedure, shortened: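 Readout: luminescence from CellTiter-Glo after 30 min in the dark at RT. Cells: DT40 Tdp1-/- with stable hTDP1, 400/well. Exposure: compounds alone, ≥48 hr, 37 °C.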
# % is set by controls: 0 for no effect and ±100 for the full control effect; potency is the fitted concentration of half-maximal effect; tags give direction and shape of the fitted curve.
SMILES,"activity change, negative = growth inhibition",Potency
NC1=C([N+](=O)[O-])C(c2ccc3c(c2)OCO3)c2c(c3ccccc3oc2=O)O1 (stereo not drawn),inactive: 20.2%,
CC1C(=O)OC2CCN3CC=C(COC(=O)C(C)(O)C1(C)O)C23 (stereo not drawn),,"inconclusive [inhibitor, partial curve]"
O=c1c2ccccc2nc(/C=C\c2ccccc2F)n1-c1ccc(O)cc1,,"inconclusive [inhibitor, single point]"
CCN(CCCl)Cc1ccccc1Br,,"inconclusive [inhibitor, single point]"
Cc1ccc2c(c1)C1CN(C)CCC1N2C(=O)COc1ccc(N(C)S(=O)(=O)c2cccs2)cc1 (stereo not drawn),,"inconclusive [inhibitor, single point]"
CC(=O)OCC[N+](C)(C)C,,"inconclusive [inhibitor, full curve, poor fit]"
Cc1cc(C)c(NC2=NCCS2)cc1C,,"inconclusive [inhibitor, single point]"
CC(C)(C)C(=O)Cn1c(NCCCl)nc2ccccc21,,"inconclusive [inhibitor, single point]"
CCOC(=O)c1cnc(SCc2ccc(Cl)c(Cl)c2)nc1N1CC1,,active: 0.82 µM
CCCCn1c(=O)c(C(=O)Nc2cnccn2)c(O)c2ccccc21,,active: 5.17 µM
CN(C[C@H](Cc1ccccc1)N(C[C@H](Cc1ccccc1)N(CC1(c2ccccc2)CC1)N=O)N=O)N=O,,active: 18.4 µM
CC(C)NC1C2CCC(CC2)C1(O)c1ccc(Cl)c(Cl)c1 (stereo not drawn),,"inconclusive [inhibitor, single point]"
CCc1ccc2nc(N3CCC(C(=O)N4CCC5(CC4)OCCO5)CC3)sc2c1,,active: 16.4 µM
O=C(NC(=O)c1c(F)cccc1F)Nc1cc(Cl)c(F)c(Cl)c1F,,"inconclusive [inhibitor, single point]"
CCN(CC)c1ccc(N=Cc2c(O)n(Cc3ccco3)c(=O)[nH]c2=O)cc1,inactive: -11.7%,
CN(C)CCN=Cc1c(O)n(-c2cccc(C(F)(F)F)c2)c(=O)[nH]c1=O,inactive: 0.004%,
Nc1cc(SCc2ccc(Cl)cc2Cl)ncn1,,"inconclusive [inhibitor, single point]"
C[C@@]12C(=O)N(Cc3ccco3)CC(=O)N1[C@H]1c3ccccc3OC[C@@H]1[C@@H]2c1ccccc1,,"inconclusive [inhibitor, single point]"
CCC(COC(=O)NC)NC(=O)Oc1ccccc1 (stereo not drawn),inactive: 6.4%,
CC(C)(COC(=O)C(c1ccccc1)c1ccccc1)CN1CCOCC1,,active: 20.6 µM
C[C@H]1O[C@@H](O[C@H]2CC[C@@]3(C)[C@H](CC[C@@H]4[C@@H]3C[C@@H](O)[C@]3(C)[C@@H](C5=CC(=O)OC5)CC[C@]43O)C2)C[C@H](O)[C@@H]1O[C@H]1C[C@H](O)[C@H](O[C@H]2C[C@H](O)[C@H](O[C@@H]3O[C@H](CO)[C@@H](O)[C@H](O)[C@H]3O)[C@@H](C)O2)[C@@H](C)O1,,active: 0.944 µM
Cc1cccc(OCCn2cccc2/C=C2/C(=O)NC(=O)N(Cc3ccco3)C2=O)c1,inactive: -4.69%,
O=P(c1ccccc1)(c1nc2ccccc2s1)N1CCOCC1 (stereo not drawn),inactive: -6.08%,

SMILES,"activity change, negative = growth inhibition",Potency
Cc1c(C(c2ccc(Cl)cc2Cl)c2c(O)c3ccccc3oc2=O)c(=O)n(-c2ccccc2)n1C (stereo not drawn),,"inconclusive [inhibitor, single point]"
CC1=NNC(=O)C1Br (stereo not drawn),,"inconclusive [inhibitor, single point]"
COCC(=O)N(c1c(C)cccc1C)C(C)C(=O)OC (stereo not drawn),,"inconclusive [inhibitor, single point]"
COC(=O)C1=C(c2cccc(OCc3ccccc3)c2)C[C@@H]2CC[C@H]1N2C(=O)NCc1ccc(OC)c(OC)c1,,active: 14.6 µM
CCC1(C)CN(S(=O)(=O)OCC(Cl)(Cl)Cl)C(=O)N1 (stereo not drawn),inactive: 1.48%,
Cc1ccc(-n2c(O)c(C=Nc3ccccc3N)c(=O)[nH]c2=O)cc1C,,"inconclusive [inhibitor, partial curve]"
O=C(NC(c1ccc(Cl)cc1)P(=O)(Oc1ccccc1)Oc1ccccc1)OCc1ccccc1 (stereo not drawn),,"inconclusive [inhibitor, partial curve]"
O=C1CN=C(c2ccccc2)c2oc3ccc(Br)cc3c2N1,,"inconclusive [inhibitor, single point]"
CCN(CC)CC(=O)Nc1ccc(Cl)cc1C(=O)c1ccccc1,,"inconclusive [inhibitor, single point]"
Cc1ccc(-c2nc(CN3C(=O)CN=C(c4ccccc4)c4cc(Cl)ccc43)c(C)o2)cc1,,"inconclusive [inhibitor, single point]"
CCCCCn1c(N)c(C(=O)NCCN2CCOCC2)c2nc3ccccc3nc21,,active: 13 µM
O=C(Cn1cnc2sc3c(c2c1=O)CCCC3)NCCC(=O)N1CCC2(CC1)OCCO2,inactive: 0.175%,
O=C(Nc1cccc(F)c1)N1CCCC2(CCN(C(=O)Oc3ccccc3)CC2)C1,,"inconclusive [inhibitor, single point]"
FC(F)(F)c1ccc(-c2ccc3c(c2)CNCc2cnnn2-3)cc1,,"inconclusive [inhibitor, single point]"
CCOC(=O)N1CCN(c2ccc(Cl)c(Cl)c2)CC1,,active: 12.6 µM
CO[C@@H]1C[C@@H](C[C@H]2CC[C@H](C)[C@@H]([C@@H](C)C(=O)O)O2)O[C@]2(O[C@](C)([C@H]3CC[C@@](C)(C4OC([C@H]5O[C@@](O)(CO)[C@H](C)C[C@@H]5C)C[C@@H]4C)O3)C[C@H]2C)[C@@H]1C (stereo partly drawn),,active: 0.588 µM
CCOC(=O)c1c(-n2c(C)cc(/C=C3/C(=O)NC(=O)N(CC)C3=O)c2C)sc2c1CCCC2,,"inconclusive [inhibitor, single point]"
O=C(O)c1ccccc1-c1ccc(C=C2C(=O)N(c3ccccc3)C(=S)N(c3ccccc3)C2=O)o1,inactive: 1.53%,
CCn1c(O)c(C(c2ccccn2)c2c(O)n(CC)c(=S)[nH]c2=O)c(=O)[nH]c1=S,inactive: -25.2%,
O=C(NCCN1CCC(n2c(=O)[nH]c3ccccc32)CC1)c1ccc2ccccc2c1,,"inconclusive [inhibitor, single point]"
COCCNC(=O)Cn1cc(/C=C2\C(=O)NC(=O)N(c3cccc(C)c3C)C2=O)c2ccccc21,,"inconclusive [inhibitor, single point]"
O=c1[nH]c(=O)n(CCC2=CCCCC2)c(O)c1C=NCCN1CCNCC1,inactive: -11.1%,
COc1ccc(OC(=O)Nc2ccc([N+](=O)[O-])cc2OC)cc1,,"inconclusive [inhibitor, single point]"

SMILES,"activity change, negative = growth inhibition",Potency
Cc1ccc(S(=O)(=O)NCC(=O)OCC(=O)N2N=C(c3ccc(Cl)cc3)CC2c2ccco2)cc1C (stereo not drawn),,active: 23.1 µM
Nc1nc(NC(=O)/C=C/c2ccc(F)cc2)nn1-c1ccccc1,,"inconclusive [inhibitor, partial curve, poor fit]"
Cc1ccc(/C=C2\C(=O)NC(=S)N(c3cccc(F)c3)C2=O)o1,,"inconclusive [inhibitor, single point]"
CN(C)CC#CCn1c2ccccc2c2ccccc21,,"inconclusive [inhibitor, partial curve]"
COCCCNC(=O)c1c(NC(=O)c2ccccc2Cl)n(Cc2ccccc2)c2nc3ccccc3nc12,inactive: -14.3%,
CCC(=O)O[C@@H]1[C@@H](OC(C)=O)[C@@]2(O)C(C[C@H](O)C2(C)C)[C@](C)(O)[C@H]2CC[C@@H]3[C@@H](O)[C@]12C[C@@]3(C)O (stereo partly drawn),inactive: -2.68%,
O=C1/C(=C/c2cc([N+](=O)[O-])ccc2Cl)N2CCC1CC2,,active: 16.4 µM
COCCNC(=O)Cn1cc(C(=O)c2ccccc2F)c2ccccc21,inactive: -6.81%,
O=C(Nc1ccc(Cl)cc1)C1CCN(C(=O)c2cccs2)CC1,,"inconclusive [inhibitor, single point]"
NCC(CP(=O)(O)O)c1ccc(Cl)cc1 (stereo not drawn),inactive: -9.26%,
Cc1ccc(C)c(OCC(=O)N2CCN(Cc3ccc4c(c3)OCO4)CC2)c1,,"inconclusive [inhibitor, single point]"
Fc1ccccc1CCNCc1ccccc1,inactive: -24%,
O=C1c2cccc3cccc(c23)C(=O)N1CCN1CCN(C(=S)Nc2ccccc2)CC1,,"inconclusive [inhibitor, single point]"
CCN(C1CCCCC1)S(=O)(=O)c1ccc(S(=O)(=O)N(CC(=O)Nc2ccccc2)C2CC2)cc1,,"inconclusive [inhibitor, single point]"
O=C(NC(=O)c1ccccc1Cl)Nc1ccc(OC(F)(F)F)cc1,inactive: -4.81%,
Cc1c(/C=N/O)c2ccccc2n1C,inactive: -4.34%,
COCCN(CCOC)S(=O)(=O)c1ccc(C(=O)Nc2sc3c(c2C(N)=O)CCCC3)cc1,,"inconclusive [inhibitor, partial curve, poor fit]"
Cc1cc(S(=O)(=O)NC(C)C)ccc1OCC(=O)N1CCN(Cc2ccc3c(c2)OCO3)CC1,,"inconclusive [inhibitor, partial curve, poor fit]"
CCCCCc1cc(O)c2c(c1)OC(C)(C)[C@@H]1CCC(C)=C[C@@H]21,,"inconclusive [inhibitor, single point]"
COc1ccc2c(c1)C1(C(=O)O)CC=CCC1(C(=O)O)C2 (stereo not drawn),inactive: 1.08%,
CC(=NC1CCN(Cc2ccccc2)CC1)c1c(O)n(C)c(=O)n(C)c1=O,inactive: -7.85%,
CC(C)(C)OC(=O)NCc1ccc(CNC(=O)c2[nH]cnc2C(=O)Nc2ccccc2F)cc1,,active: 7.31 µM
